Results reported in PubChem BioAssay AID2147 (National Center for Advancing Translational Sciences (NCATS), 2009).
Values joined by “and” are separate entries in the source; they are usually repeats but may differ in a detail not shown here. Identical values can stand only once. The campaign covered roughly 230,000 compounds. About 3,600 (1.6%) were called active. The shares of active, inactive and inconclusive entries below differ from those in the screen. Calls follow the shape of the dose curve; as a rule, active = well fitted inhibition curve with a large enough effect (not every such curve was filed as active); inconclusive = small, poorly fitted or top-dose-only effect, or another doubt; inactive = no such curve, though single readings can be large or run the other way. Where the call is inconclusive, the potency comes from a doubtful curve fit.

Each compound was assayed against Lysine-specific demethylase 4E (Homo sapiens) (UniProt B2RXH2) (assay: qHTS Assay for Inhibitors of Human Jumonji Domain Containing 2E (JMJD2E)). Conditions: JMJD2E catalytic domain, FDH-coupled NADH fluorescence (FDH is formaldehyde dehydrogenase); series mostly up to 57.1 µM; activity change, negative = inhibition: at the top concentration.
Also: nearly all actives have a fitted effect of over 50% in size.
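For activity change, negative = inhibition in this document: 0% = wells with enzyme and -100% = buffer wells without enzyme.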
Potency is read from the fitted curve at half-maximal effect; tags tell the direction and shape of the fitted curve.

Sequence of UniProt B2RXH2 (B2RXH2 whole entry, looked up, the tested form may be a part): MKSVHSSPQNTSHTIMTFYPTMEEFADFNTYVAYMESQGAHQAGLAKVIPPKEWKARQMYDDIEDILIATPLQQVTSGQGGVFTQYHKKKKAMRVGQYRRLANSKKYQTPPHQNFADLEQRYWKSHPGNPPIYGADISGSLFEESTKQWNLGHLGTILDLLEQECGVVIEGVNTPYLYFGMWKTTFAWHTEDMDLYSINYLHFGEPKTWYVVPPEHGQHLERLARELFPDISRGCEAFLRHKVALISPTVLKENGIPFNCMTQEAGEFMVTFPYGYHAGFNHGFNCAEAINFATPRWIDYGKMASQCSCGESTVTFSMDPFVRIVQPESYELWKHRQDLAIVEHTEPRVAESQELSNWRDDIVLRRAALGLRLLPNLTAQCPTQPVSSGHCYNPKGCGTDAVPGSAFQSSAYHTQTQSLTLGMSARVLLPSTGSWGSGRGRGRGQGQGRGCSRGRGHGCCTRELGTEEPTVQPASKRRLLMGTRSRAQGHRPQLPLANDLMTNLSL

Structure (SMILES) | Potency | activity change, negative = inhibition
CN/N=C/c1ccc(C#N)cc1 | inconclusive: 31.6 µM [inhibitor, single point] | 
CC1Nc2ccccc2C(=O)N1NC(=O)c1ccc(Br)cc1 (configuration not stated) | inconclusive: 31.6 µM [inhibitor, partial curve] | 
CCN(Cc1ccncc1)Cc1nc(Cc2ccccc2Cl)no1 |  | inactive: 5.62%
Cc1cc(N2CCN(C)CC2)nc2ccc(NC(=S)NCCN3CCc4ccccc4C3)cc12 | inconclusive: 28.2 µM [inhibitor, single point] | 
Cc1ccc(-c2cc(C(=O)NC3=NCCS3)c3ccccc3n2)cc1C | inconclusive: 39.8 µM [inhibitor, single point] | 
CC(C(=O)NC1CCCC1)N(C(=O)c1ccc(-c2ccccc2)[nH]1)c1ccccc1F (configuration not stated) | inconclusive: 39.8 µM [inhibitor, single point] | 
CCCCn1nc2cc(C(=O)N(CC)c3ccc(OC)cc3)ccc2c1OCC | inconclusive: 22.4 µM [inhibitor, partial curve] | 
CCCOC(=O)c1cc(=O)[nH]c2ccccc12 | inconclusive: 25.1 µM [inhibitor, partial curve] | 
COc1ccc(NC(=O)Cn2c(-c3ccccc3)cc(C(C)=O)c2C)c(OC)c1 |  | inactive: 6.73%
Nn1c(Cc2ccccc2F)n[nH]c1=S | inconclusive: 39.8 µM [inhibitor, single point] | 
CCc1nc2c(sc3nc4c(cc32)COC(C)(C)C4)c(=O)n1Cc1ccco1 | inconclusive: 35.5 µM [inhibitor, partial curve] | 
CC1(C)Cn2c(nnc2-c2cccc(O)c2)S1 |  | inactive: 0.648%
CC[n+]1c(/C=C2\C=C(C)CC(C)(C)C2)sc2ccccc21 | inconclusive: 35.5 µM [inhibitor, single point] | 
COCCCNC(=S)NCCNc1nc2cc(C)cc(C)c2cc1C#N | inconclusive: 31.6 µM [inhibitor, partial curve] | 
COCCn1cc(C(=O)NCc2ccco2)c2c3ccccc3n(C)c2c1=O | inconclusive: 14.1 µM [inhibitor, partial curve] | 
CC1=Nc2cccc3cccc(c23)N1 |  | inactive: -15.5%
CC(C)CNC(=O)CCCSc1nc2ccccc2[nH]1 | inconclusive: 39.8 µM [inhibitor, single point] | 
C[C@@H]1Cc2ccccc2N1NC(=O)c1ccc(Cl)c(S(N)=O)c1 (some centres not stated) |  | inactive: -0.382% [at 25.5 µM]
CCCCOc1ccc(/C=C2/Sc3ccccc3C2=O)cc1 |  | inactive: 1.43%
COc1ccc(-c2c3c(=O)n(C)c(=O)n(C)c3cn2NC(C)=O)cc1 | inconclusive: 28.2 µM [inhibitor, single point] | 
CC(=O)C1=C(O)C(=O)N(Cc2ccccc2)C1c1cccs1 (configuration not stated) |  | inactive: 1.67%
COc1ccc(-c2c(-c3ccc(OCC(=O)NN)cc3O)n[nH]c2C)cc1 | inconclusive: 39.8 µM [inhibitor, single point] | 
NNc1nc2ccccc2nc1C(F)(F)F | inconclusive: 31.6 µM [inhibitor, single point] | 
COc1ccc2nc3oc(C(=O)N4CCN(c5ccccc5F)CC4)cc3cc2c1 | inconclusive: 31.6 µM [inhibitor, single point] | 

Structure (SMILES) | Potency | activity change, negative = inhibition
COCCNc1cc(-c2ccccc2CN(C)C)ncn1 | inconclusive: 35.5 µM [inhibitor, single point] | 
Cc1ccc(-c2nnc(-c3ccc(NC(=O)c4cccs4)cc3)o2)cc1 | inconclusive: 6.31 µM [inhibitor, single point] | 
Oc1ccccc1N1CCN(c2ncnc3sc(-c4ccccc4)cc23)CC1 | inconclusive: 35.5 µM [inhibitor, single point] | 
CCN(CC)C(=O)c1c2c(nc3ccccc13)-c1ccccc1CC2 | inconclusive: 31.6 µM [inhibitor, single point] | 
CO/N=C\c1cc(C(=O)c2ccc(Cl)cc2Cl)cn1C | inconclusive: 39.8 µM [inhibitor, single point] | 
CC1=C(C(=O)OC2CCCCC2)C(c2cccs2)n2c(nc3ccccc32)N1 (configuration not stated) | inconclusive: 28.2 µM [inhibitor, partial curve] | 
CCOC(=O)NN1C(=O)c2ccccc2NC1c1ccccc1 (configuration not stated) | inconclusive: 28.2 µM [inhibitor, partial curve] | 
CC(=O)c1ccc(N2CCN(C(=S)Nc3ccc(Oc4ccccc4)cc3)CC2)cc1 | inconclusive: 35.5 µM [inhibitor, partial curve] | 
CC(=O)N1c2ccccc2C2(O)N=C(C)SC12 (configuration not stated) |  | inactive: -14%
COc1ccc(/C=C/C(=O)NC(=S)NNC(=O)c2cccnc2)cc1 | inconclusive: 39.8 µM [inhibitor, single point] | 
Cc1cc(=O)oc2cc(Oc3ccc([N+](=O)[O-])cc3[N+](=O)[O-])ccc12 | inconclusive: 25.1 µM [inhibitor, partial curve] | 
CCC(NC(=O)C1CCC1)c1ccccc1 (configuration not stated) |  | inactive: 5.52%
C=C(C)COc1ccc2c(C)c(CC(=O)OC)c(=O)oc2c1C | inconclusive: 31.6 µM [inhibitor, partial curve] | 
C=CCNc1nnc(Sc2ncccc2[N+](=O)[O-])s1 |  | inactive: -1.55%
COc1cc(-c2nnc(SCC(=O)OC3CCCCC3)o2)cc(OC)c1OC | inconclusive: 35.5 µM [inhibitor, single point] | 
Cn1c(SCC(=O)N2CCCc3ccccc32)nnc1-c1ccco1 |  | inactive: 7.94%
C/C=C/c1ccc(OCCCNC)c(OC)c1 | inconclusive: 31.6 µM [inhibitor, single point] | 
COc1ccc(-c2cc(=O)oc3c(C)c(OCc4nn[nH]n4)ccc23)cc1 | inconclusive: 35.5 µM [inhibitor, single point] | 
C/C(=N\NC(=O)CSc1nc2ccccc2[nH]1)c1ccncc1 |  | inactive: 2.47%
Cc1cc(N)ccc1-n1c(C)ccc1C | inconclusive: 10 µM [inhibitor, partial curve] | 
CCn1c(SCC(=O)NCCc2ccc(F)cc2)nnc1-c1cccs1 |  | inactive: -6.82%
O=C(Nc1cccc(S(=O)(=O)Nc2ccccc2Cl)c1)c1ccc(Cl)nc1 | inconclusive: 39.8 µM [inhibitor, single point] | 
C=CCSC1=N/C(=C\c2ccc(C(=O)O)cc2)C(=O)S1 | inconclusive: 25.1 µM [inhibitor, partial curve] | 
Cc1[nH]c2ccccc2c1/C=N/NC(=O)c1cc(-c2ccccc2)n[nH]1 | inconclusive: 31.6 µM [inhibitor, single point] | 

Structure (SMILES) | Potency | activity change, negative = inhibition
CCOC(=O)c1cc(C(=O)OCC)cc(-n2c(C)cc(C(=O)CN3CCOCC3)c2C)c1 | active: 12.6 µM | 
C=CCSC1=Nc2cc(OC)c(OC)cc2C2=NC(=O)CN12 | inconclusive: 31.6 µM [inhibitor, partial curve] | 
CCCCn1cnc2c(oc3nc4c(cc32)CCCC4)c1=O | inconclusive: 31.6 µM [inhibitor, single point] | 
CCOC(=O)CSc1nn(-c2ccccc2)c(=S)s1 |  | inactive: 0.809%
COc1ccc2[nH]c(=O)c(CN(Cc3ccc4c(c3)OCO4)C(C)=O)cc2c1 | inconclusive: 28.2 µM [inhibitor, single point] | 
COc1cc2cc(CN(CCCN3CCOCC3)C(=O)Nc3ccc(F)cc3)c(=O)[nH]c2cc1OC | inconclusive: 31.6 µM [inhibitor, partial curve] | 
Cc1nc(NCc2ccccc2)c2nc(-c3ccccc3)n(CCCN3CCCCC3C)c2n1 (configuration not stated) | inconclusive: 31.6 µM [inhibitor, partial curve] | 
O=C(O)c1cnn(-c2ccccc2)c1-n1cccc1 |  | inactive: -8.07%
CC1=Nn2c(nc(-c3ccccc3)c2-c2ccccc2)N(CC(N)=O)C(=O)C1 |  | inactive: -0.742%
CCN(CC)C(=O)c1ccc(C)c(Br)c1 |  | inactive: 4.3%
Cc1cc2ccccn2c1C(=O)c1nc(NCc2ccccc2)ncc1Cl |  | inactive: -12.2%
COc1ccccc1NC(=O)N1CCN(c2ccnc3cc(Cl)ccc23)CC1 | inconclusive: 39.8 µM [inhibitor, single point] | 
CC1CN(c2nc3ccccc3cc2-c2ccccc2)CC(C)O1 (configuration not stated) | inconclusive: 28.2 µM [inhibitor, partial curve] | 
CCOc1ccc(CN2C(=O)CC(=O)N(S(=O)(=O)c3ccc(OCC)cc3)C2=O)cc1 |  | inactive: 3.6%
N#Cc1c(N)nc(Sc2ccc(Cl)cc2)c(C#N)c1-c1ccccc1Cl | inconclusive: 39.8 µM [inhibitor, single point] | 
CCc1[nH]c(=O)c(C#N)c2c1CSC(C)(C)C2 | inconclusive: 28.2 µM [inhibitor, partial curve] | 
CC1=NN(c2ccccc2)C(=O)C1 | inconclusive: 1.12 µM [inhibitor, full curve, poor fit] and inconclusive: 3.55 µM [inhibitor, full curve] | 
O=C1CSc2ccc(C(=O)NCCC3=CCCCC3)cc2N1 |  | inactive: -7.05%
COC(=O)c1cc2oc3ccccc3c2n1CC(=O)N1CCCc2ccccc21 | inconclusive: 31.6 µM [inhibitor, single point] | 
O=C(NC(=S)NCc1ccncc1)c1ccccc1 | inconclusive: 35.5 µM [inhibitor, single point] | 
Cc1ccc(/C=N/Nc2nc3ccccc3[nH]2)s1 |  | inactive: -7.93%
CCc1ccc(/C=C2\Oc3cc(OC(=O)N4CCOCC4)ccc3C2=O)cc1 | inconclusive: 31.6 µM [inhibitor, partial curve, poor fit] | 
Cc1cc(C)c2c(SC(C)C)nc(N)nc2n1 | inconclusive: 22.4 µM [inhibitor, partial curve] | 
COc1ccc(CNCC(O)COc2cccc3c2OC(C)(C)C3)cc1 (configuration not stated) | inconclusive: 39.8 µM [inhibitor, single point] | 
